# According to PubChem BioAssay (NCATS):
# “And” between values parts separate entries of the source, which are not always exact repeats. Identical values can stand only once. Some of the results follow. These are further read-outs of the screen, such as a control signal, another cell line or another target. No call is given for them. Compounds called inactive in the main read-out are mostly missing here. For some of these results: The note in brackets gives the kind of curve behind each potency; many fits are weak.
# Assays:
# [1] = qHTS Assay for Lipid Storage Modulators (AID 1519); conditions: Drosophila S3 cells, BODIPY lipid droplet/cell ratio, laser cytometry, cells loaded with oleic acid
# Summary of the method: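 Cells seeded at 5,000 per well were treated with compounds over a concentration series and loaded with oleic acid (400 uM, as added). Lipid droplet fluorescence (488 nm excitation, 500-530 nm channel) was read by laser-scanning cytometry and normalized to 20 uM Triacsin C.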
# [2] = S16 Schwann cell PMP22 intronic element beta-lactamase assay (AID 624044); conditions: S16 rat Schwann cells, PMP22 element beta-lactamase FRET, 24 h; further: nearly all actives have a fitted effect of over 15% in size
# Summary of the method: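 Rat S16 Schwann cells with beta-Lac driven by a PMP22 intronic element, compound-treated 24 h at 37 °C. LiveBLAzer FRET B/G read: 460 nm normalized to potassium clavulanate vs DMSO; 535 nm FRET as viability; concentration-effect curves classified.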
# [3] = qHTS Assay for Modulators of Human Peripheral Myelin Protein 22 (PMP22) Expression/Activity (AID 1967); conditions: Cell-based PMP22 reporter, dual-color luciferase ratio; measured here: red reporter channel AC50; EF-alpha promoter control reporter in MSC80 mouse Schwann cells
# Summary of the method: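 Mouse MSC80 Schwann line, Pmp22 promoter–CBG68 reporter, EF-alpha–CBR internal control. 24h compound exposure, 37 °C/5% CO2, DMEM + 10% FBS. Readout: corrected green/red luminescence ratio, normalized to untreated cells; concentration-response curves fitted and classified.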
# [4] = Nrf2 qHTS screen for inhibitors: Validation (AID 493153); conditions: A549 ARE-Fluc reporter, 18-24 h; AC50: CellTiter-Fluor fluorescence read, measured here: cytotoxicity CellTiter-Fluor AC50; viability change: measured here: cytotoxicity max response
# Summary of the method: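 A549 cells carrying an ARE-driven firefly luciferase reporter, in 5% FBS OPTI-MEM, were treated with compounds in concentration-response for 18-24 h at 37°C. Viability was read by CellTiter-Fluor fluorescence, then Nrf2 activity by luciferase luminescence.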
# [5] = qHTS Assay for Inhibitors of PDE-IV (AID 607); conditions: HEK293 ACTOne CNG channel cells, membrane potential fluorescence; measured here: parental cell counter-screen;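 further: parental cells stimulated with forskolin 10 µM plus RO 20-1724 100 µM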
# Summary of the method: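 Live HEK293 cells with a modified cyclic nucleotide-gated (CNG) channel report intracellular cAMP via membrane-potential dye fluorescence (ex 535/em 590 nm). Endogenous PDE-IV was targeted. Compounds were tested at up to 22.9 uM final; RO 20-1724 100 uM served as control.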
# [6] = qHTS Validation Assay to Find Inhibitors of Chronic Active B-Cell Receptor Signaling (AID 485345); conditions: ABC-DLBCL cells, chronic BCR signaling reporter; measured here: CBR control luciferase (viability counter)
# Summary of the method: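 TMD8 ABC-DLBCL cells stably carrying doxycycline-inducible IkappaBalpha–green luciferase fusion plus unfused red luciferase; compounds 46 uM to 3 nM, 4 h at 37C with doxycycline. Corrected green/red luminescence ratio normalized to 10 uM MG-132 and basal cell wells; curves fitted.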
# [7] = qHTS assay for small molecule antagonists of glucocorticoid receptor signaling (AID 588533); conditions: HeLa MMTV-bla, GRE beta-lactamase ratio, antagonist mode, 18 h; measured here: W530 channel AC50;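 further: cells stimulated with 2 nM dexamethasone as agonist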
# [8] = qHTS assay for small molecule antagonists of peroxisome proliferator-activated receptor delta signaling (AID 588535); conditions: HEK293T PPARd-UAS-bla, beta-lactamase FRET ratio, 18 h; 460 nm channel;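 further: cells co-treated with a PPAR-delta agonist as stimulator during compound exposure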
# Summary of the method: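 Cells were seeded at 4000 per well in assay medium containing 2% charcoal/dextran FBS and held 5 hrs at 37 C. Compounds were then added for 18 hrs. CCF4 substrate was applied for 2 hrs at room temperature before fluorescence reading.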
# [9] = A High-Content qHTS Against Drug Library for the Identification of Small Molecules that Inhibit DYT1 Early Onset Primary Dystonia-Associated Cell Pathology (AID 1645839); conditions: HEK293 Flp-In EGFP-delE TorsinA, punctate imaging, 48 h; measured here: cell count cytotoxicity
# Summary of the method: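 Flp-In T-REx 293 cells with tetracycline-inducible EGFP-delE hTOR1A (WT EGFP-hTOR1A as reference), 800 cells/well; compound added with tetracycline, 48 h at 37 C. Fixed, permeabilized cells imaged; %pathology (punctate TorsinA) primary, cell count counterscreen.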
# [10] = biological target: Histamine N-methyltransferase (Homo sapiens) (UniProt P50135); assay: Confirmatory Screen for Target Class Profiling of Small Molecule Inhibitors of Methyltransferases (AID 1745852); conditions: MTase-Glo luminescence, SAH detection, recombinant enzyme; measured here: HNMT inhibition potency;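 further: inhibitor potency for blocking SAH production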
# Chain of UniProt P50135 (P50135 whole entry, looked up): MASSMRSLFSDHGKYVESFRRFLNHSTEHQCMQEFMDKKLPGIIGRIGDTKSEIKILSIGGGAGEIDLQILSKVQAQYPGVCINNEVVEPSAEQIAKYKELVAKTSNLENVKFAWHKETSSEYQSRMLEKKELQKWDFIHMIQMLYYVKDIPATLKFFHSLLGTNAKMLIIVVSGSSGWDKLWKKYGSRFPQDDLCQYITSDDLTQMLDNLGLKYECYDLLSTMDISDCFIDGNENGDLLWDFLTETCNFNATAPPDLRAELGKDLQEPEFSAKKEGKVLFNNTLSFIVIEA
# [11] = qHTS assay for small molecule antagonists of retinoid X receptor alpha signaling (AID 588546); conditions: HEK293T RXRa-UAS-bla, beta-lactamase ratio, antagonist mode; measured here: W530 green channel, cytotoxicity proxy;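 further: cells stimulated with 9-cis-retinoic acid as agonist; on the % scale 0 is the no-effect control and ±100 the full control effect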
# Summary of the method: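 Beta-lactamase reporter inhibition, read as CCF4 fluorescence ratio (ex 405, em 460/530 nm) after 2 h at RT. HEK293T UAS-bla cells, 2500/well, were stimulated with 9-cis-RA at 500 or 100 nM final alongside test compound for 18 h at 37 C.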
# [12] = measured here: cell count channel max response
# [13] = measured here: cell number channel AC50
# [14] = measured here: lipid (BODIPY) channel AC50
# [15] = measured here: lipid channel max response
# [16] = measured here: 460 nm blue channel
# Tags describe the fitted curve by direction and shape.
compound,measurement,setting,value
Clc1cccc(N2CCNCC2)c1,max response,[1]; [12],0.7% and -18.8%
same,AC50,[1]; [13],"0.398 µM [falling, full curve, poor fit]"
same,AC50,[1]; [14],"15.8 µM [rising, single point] and 398 nM [falling, full curve, poor fit]"
same,max response,[1]; [15],0.848% and -15.6%
same,AC50,[2]; [16],"2.51 µM [falling, full curve, poor fit]"
C[C@]12CCC3C(CC[C@H]4C[C@H](O)CC[C@]34C)C1CC[C@@H]2C(=O)CO (some centres undefined),max response,[1]; [12],-20.8%
same,AC50,[1]; [13],"7.08 µM [falling, full curve, poor fit]"
same,AC50,[1]; [14],"7.08 µM [falling, full curve, poor fit]"
same,max response,[1]; [15],-21.4%
same,AC50,[3],"95.3 µM [falling, single point]"
same,viability change,[4],-0.661%
COC(=O)CN1CN(c2ccccc2)C2(CCN(Cc3ccc4ccccc4c3)CC2)C1=O,AC50,[5],"20 µM [rising, single point]"
same,max response,[1]; [12],75.3%
same,AC50,[1]; [13],"28.2 µM [rising, partial curve, poor fit]"
same,AC50,[1]; [14],"25.1 µM [rising, partial curve]"
same,max response,[1]; [15],99.9%
CN(C(=O)Cc1ccc(Cl)c(Cl)c1)[C@H](CN1CCCC1)c1ccccc1,AC50,[5],"15.8 µM [rising, partial curve, poor fit]"
same,max response,[1]; [12],58.5%
same,AC50,[1]; [13],"3.16 µM [rising, full curve]"
same,AC50,[1]; [14],"2.82 µM [rising, full curve]"
same,max response,[1]; [15],78.6%
C(=C/c1ccccc1)/CN1CCN(CCOC(c2ccccc2)c2ccccc2)CC1,AC50,[5],"15.8 µM [rising, partial curve]"
same,max response,[1]; [12],46.5%
same,AC50,[1]; [13],"7.94 µM [rising, full curve, poor fit]"
same,AC50,[1]; [14],"5.62 µM [rising, full curve, poor fit]"
same,max response,[1]; [15],31.6%
CN1[C@@H]2CC[C@H]1CC(OC(c1ccc(F)cc1)c1ccc(F)cc1)C2 (some centres undefined),AC50,[5],"10 µM [rising, partial curve]"
same,max response,[1]; [12],19.1%
same,AC50,[1]; [13],"0.794 µM [rising, full curve, poor fit]"
same,AC50,[1]; [14],"0.708 µM [rising, full curve, poor fit]"
same,max response,[1]; [15],29.8%
NC(N)=NC(=O)c1nc(Cl)c(N)nc1N,max response,[1]; [12],-49.8%
same,AC50,[1]; [13],"7.08 µM [falling, full curve]"
same,AC50,[1]; [14],"7.08 µM [falling, full curve]"
same,max response,[1]; [15],-47.3%
same,AC50,[6],"7.31 µM [falling, partial curve]"
same,AC50,[7],"50.1 µM [falling, partial curve, poor fit]"
COc1ccc2c(c1OC)C(=O)OC2C1c2cc3c(cc2CCN1C)OCO3 (centres undefined),max response,[1]; [12],24.9% and 9.21% and 103%
same,AC50,[1]; [13],"5.01 µM [rising, full curve]"
same,AC50,[1]; [14],"11.2 µM [rising, partial curve] and 631 nM [rising, full curve, poor fit] and 5.01 µM [rising, full curve]"
same,max response,[1]; [15],48.9% and 25.8% and 132%
same,max response,[8],55.4%
C=CCN1C[C@H](C)N([C@H](c2ccc(C(=O)N(CC)CC)cc2)c2cccc(OC)c2)C[C@H]1C,max response,[1]; [12],53.2%
same,AC50,[1]; [13],"12.6 µM [rising, full curve, poor fit]"
same,AC50,[1]; [14],"12.6 µM [rising, full curve, poor fit]"
same,max response,[1]; [15],72.7%
same,AC50,[2]; [16],"25.1 µM [rising, partial curve, poor fit]"
same,AC50,[2]; measured here: 530 nm viability channel,"15.8 µM [rising, partial curve]"
Brc1c(NC2=NCCN2)ccc2nccnc12,max response,[1]; [12],30.9% and -24.1%
same,AC50,[1]; [13],"7.94 µM [rising, full curve, poor fit] and 12.6 µM [falling, partial curve, poor fit]"
same,AC50,[1]; [14],"12.6 µM [rising, partial curve, poor fit]"
same,max response,[1]; [15],41% and -24.1%
same,AC50,[2]; [16],"22.4 µM [rising, single point]"
C[C@@H](Cc1cccc(C(F)(F)F)c1)NCCCc1ccccc1,AC50,[5],"20 µM [rising, single point]"
same,max response,[1]; [12],70%
same,AC50,[1]; [13],"35.5 µM [rising, partial curve, poor fit]"
same,AC50,[1]; [14],"39.8 µM [rising, partial curve, poor fit]"
same,max response,[1]; [15],88%
O=C(Oc1ccccc1)N1CCC[C@@]2(CCN(Cc3nccs3)C2)C1,AC50,[5],"0.398 µM [rising, single point]"
same,max response,[1]; [12],35.8%
same,AC50,[1]; [13],"1.26 µM [rising, full curve]"
same,AC50,[1]; [14],"0.355 µM [rising, full curve]"
same,max response,[1]; [15],44.8%
CC(CCc1ccccc1)NC(C)C(O)c1ccc(O)cc1 (centres undefined),max response,[1]; [12],20.5%
same,AC50,[1]; [14],"39.8 µM [rising, single point]"
same,max response,[1]; [15],32.7%
same,AC50,[9],"7.08 µM [falling, partial curve, poor fit]"
CCC(C(=O)O)C1CCC(C)C(C(C)C(O)C(C)C(=O)C(CC)C2OC3(C=CC(O)[C@@]4(CC[C@](C)(C5CC[C@@](O)(CC)C(C)O5)O4)O3)C(C)CC2C)O1 (some centres undefined),max response,[1]; [12],2.89%
same,AC50,[1]; [14],"20 µM [falling, single point]"
same,max response,[1]; [15],-33.9%
same,AC50,[2]; [16],"0.0398 µM [falling, full curve, poor fit]"
C[C@@H](N)Cc1cnc[nH]1,max response,[1]; [12],49.2%
same,max response,[1]; [15],49.8%
same,viability change,[4],-2.69%
same,IC50,[10],"10.9 µM [rising, partial curve]"
CCCCOC(=O)c1ccccc1C(=O)OCCCC,max response,[1]; [12],28.2%
same,AC50,[1]; [14],"35.5 µM [rising, partial curve]"
same,max response,[1]; [15],39.6%
same,max response,[11],-10.3%
